Measurements taken from PubChem BioAssay AID686978 (National Center for Advancing Translational Sciences (NCATS), 2013).
“And” between values parts separate entries of the source, which are not always exact repeats. Equal entries are not always repeated. Hit rate of the full screen: of about 420,000 compounds, about 64,000 (15%) were called active. The inconclusive results got no clear call from the source; some entries with a clear call stand among them for comparison. Calls follow the shape of the dose curve; as a rule, active = well fitted inhibition curve with a large enough effect; inconclusive = small, poorly fitted or top-dose-only effect; inactive = flat fitted curve, though single readings scatter. A potency beside an inconclusive call is a rough fit, not a confirmed value.

assay: qHTS for Inhibitors of human tyrosyl-DNA phosphodiesterase 1 (TDP1): qHTS in cells in absence of CPT; conditions: DT40 Tdp1-/- hTDP1 cells, no CPT, ATP luminescence, 48 h; activity change, negative = growth inhibition: at 46.2 µM (top of the series) unless noted; also: nearly all actives have a fitted effect of over 55% in size
In short: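 Growth of hTDP1-complemented DT40 Tdp1-knockout cells is measured by ATP luminescence after at least 48 hr compound exposure at 37 °C, with DMSO substituting for the 20 nM CPT used in the parallel screen.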
% is scaled to controls: 0 for no effect and ±100 for the full control effect; potency is read from the fitted curve at half-maximal effect; tags tell the direction and shape of the fitted curve.

SMILES | Potency | activity change, negative = growth inhibition
CCOC(=O)[C@]12Cc3ccccc3[C@H]1N(C(C)C)C(=O)c1ccccc12 | active: 23.1 µM | 
N=C1c2ccccc2CN1NC(=O)C1CC1 |  | inactive: -4.95%
c1cc2c3c(cccc3c1)CC2 |  | inactive: -23.8%
C[C@]12CCC3C(CC[C@H]4C[C@@H](O)CC[C@]34C)[C@H]1C=CC2=O (stereo not given in full) | inconclusive: 25.9 µM [inhibitor, single point] | 
COC(=O)C1=C(c2c(C)noc2C)C[C@@H]2CC[C@H]1N2C(=O)NC1CC1 |  | inactive: 0.733%
CC[N+](C)(CC)CCCOC(=O)C(O)(c1ccccc1)C1CCCCC1 (stereo not given) |  | inactive: 4.43%
COc1ccc(Cc2c(O)[nH]c(=S)[nH]c2=O)cc1 |  | inactive: 14.5%
COc1ccc(CN2CCCC(C(=O)c3cccc(Cl)c3)C2)cc1 (stereo not given) | inconclusive: 23.1 µM [inhibitor, single point] | 
COc1cc(CN2CCCC(C(=O)c3sccc3C)C2)cc(OC)c1O (stereo not given) | inconclusive: 29.1 µM [inhibitor, single point] | 
O=c1[nH]c(=S)n(CCC2=CCCCC2)c(O)c1C=NC1CCN(Cc2ccccc2)CC1 | inconclusive: 18.4 µM [inhibitor, single point] | 
COC(=O)C1=C(c2ccc3ccccc3c2)C[C@@H]2CC[C@H]1N2C(=O)N1CCCCC1 | active: 1.84 µM | 
CC(Cc1ccsc1)NCc1cn[nH]c1-c1ccc(F)cc1F (stereo not given) | inconclusive: 13 µM [inhibitor, partial curve] | 
O=c1[nH]c(=O)n(C2CCCCC2)c(O)c1C=Nc1ccc(N2CCOCC2)cc1 | inconclusive: 29.1 µM [inhibitor, single point] | 
CCOCN(C(=O)CCl)c1c(C)cccc1CC | inactive and inconclusive: 25.9 µM [inhibitor, partial curve] | 
CCOC(=O)c1cccc(C2=C(CNC(=O)c3ocnc3C)[C@H]3CC[C@@H](C2)N3Cc2ccccc2)c1 | inconclusive: 20.6 µM [inhibitor, single point] | 
Cc1ccc(CN(C)C(=O)c2cccc(S(=O)(=O)N3CCN(c4ccccc4)CC3)c2)cc1 | active: 14.6 µM | 
O=C1NC2C(=CC(O)C(O)C2O)c2cc3c(c(O)c21)OCO3 (stereo not given) | active: 0.092 µM | 
O=C1c2cccc(N3CCNCC3)c2C2CCCCN12 (stereo not given) | inconclusive: 20.6 µM [inhibitor, single point] | 
CC(=O)OC1CC2(C)C(C(C)=O)CCC2C2CCC3=CC(=O)CCC3(C)C12 (stereo not given) | inconclusive: 16.4 µM [inhibitor, partial curve] | 
COC(=O)C1=C(c2ccc(Cl)c(C(F)(F)F)c2)C[C@@H]2CC[C@H]1N2C(=O)NCC1CC1 | active: 18.4 µM | 
